{"source": "PubChem BioAssay AID588453", "about": "(National Center for Advancing Translational Sciences (NCATS), 2011)", "note": "Out of some 390,000 compounds screened, about 4,000 (1%) were called active. The inconclusive results got no clear call from the source; some entries with a clear call stand among them for comparison. Calls follow the shape of the dose curve; as a rule, active = well fitted inhibition curve with a large enough effect; inconclusive = small, poorly fitted or top-dose-only effect; inactive = no such curve, though single readings can be large or run the other way. A potency beside an inconclusive call is a rough fit, not a confirmed value. % is scaled to controls: 0 for no effect and ±100 for the full control effect; potency is read from the fitted curve at half-maximal effect; tags tell the direction and shape of the fitted curve.", "data": [{"biological_target": "Thioredoxin reductase 1, cytoplasmic (Rattus norvegicus) (UniProt O89049)", "sequence (O89049 whole entry, looked up)": "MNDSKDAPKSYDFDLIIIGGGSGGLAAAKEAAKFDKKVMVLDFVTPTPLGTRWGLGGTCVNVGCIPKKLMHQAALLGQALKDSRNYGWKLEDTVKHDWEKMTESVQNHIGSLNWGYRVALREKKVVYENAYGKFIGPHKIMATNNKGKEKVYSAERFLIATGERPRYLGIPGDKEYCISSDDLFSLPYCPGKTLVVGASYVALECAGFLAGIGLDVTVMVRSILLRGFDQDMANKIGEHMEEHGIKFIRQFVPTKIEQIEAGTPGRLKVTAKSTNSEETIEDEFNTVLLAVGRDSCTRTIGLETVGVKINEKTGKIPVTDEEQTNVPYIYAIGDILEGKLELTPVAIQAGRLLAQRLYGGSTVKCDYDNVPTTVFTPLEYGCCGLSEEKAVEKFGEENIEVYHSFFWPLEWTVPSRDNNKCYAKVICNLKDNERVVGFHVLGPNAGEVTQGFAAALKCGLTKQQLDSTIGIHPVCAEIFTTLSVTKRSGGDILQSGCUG", "assay": "qHTS Assay for Inhibitors of Mammalian Selenoprotein Thioredoxin Reductase 1 (TrxR1): qHTS; also: nearly all actives have a fitted effect of over 65% in size", "settings": "recombinant rTrxR1, NADPH fluorescence consumption, selenite substrate; series mostly up to 114 µM; activity change, negative = inhibition: at the top concentration", "summary_of_the_method": "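Rat TrxR1 (90 nM in the dispensed reagent) was pre-reduced with 400 uM NADPH for 5 min at room temperature, then incubated with compound for 15 min. After 400 uM selenite was added, NADPH fluorescence (Ex 340/Em 450 nm) was followed for 8 min.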", "values": [{"smiles": "O=C(CN(Cc1cccs1)C(=O)c1csnn1)NC1CCCC1", "activity change, negative = inhibition": "inactive: -0.214% [at 57.1 µM]"}, {"smiles": "CCOC(=O)c1c(NC(=S)N2CCN(C)CC2)sc(C)c1-c1ccccc1", "activity change, negative = inhibition": "inactive: 14.3%"}, {"smiles": "O=c1c(CN2CCN(c3ccccn3)CC2)coc2ccccc12", "Potency": "inconclusive: 15.8 µM [inhibitor, full curve]"}, {"smiles": "Cc1ccc(SC(C)C(=O)O/N=C(\\N)c2ccncc2)cc1", "note": "(centres undefined)", "Potency": "inconclusive: 79.4 µM [inhibitor, single point]"}, {"smiles": "Cc1cc(/C=N/Nc2ncnc(N)c2[N+](=O)[O-])c(C)n1-c1ccccc1", "Potency": "inconclusive: 44.7 µM [inhibitor, partial curve]"}, {"smiles": "COc1ccccc1-c1cc2nc(C)c(CCC(=O)NCc3cccc(Cl)c3)c(C)n2n1", "activity change, negative = inhibition": "inactive: 30.3%"}, {"smiles": "CC(Sc1nc(NCc2ccccc2)nc(N(C)C)n1)C(=O)Nc1ccccc1", "note": "(centres undefined)", "activity change, negative = inhibition": "inactive: 12.3%"}, {"smiles": "O=C(Nc1ccc2oc(-c3ccncc3)nc2c1)c1ccc([N+](=O)[O-])o1", "activity change, negative = inhibition": "inactive: 5.64%"}, {"smiles": "c1ccc(-c2ccc3c(c2)NCCN3)cc1", "Potency": "inconclusive: 79.4 µM [inhibitor, single point]"}, {"smiles": "CC1CCN(C(=S)c2ccc([N+](=O)[O-])cc2)CC1", "Potency": "inconclusive: 50.1 µM [inhibitor, partial curve]"}, {"smiles": "O=C(C1CCN(CCCc2ccccc2)CC1)N(CCc1ccccc1)Cc1ccccc1", "activity change, negative = inhibition": "inactive: -11.6%"}, {"smiles": "O=C1c2ccccc2NC(c2ccco2)N1/N=C/c1ccco1", "note": "(centres undefined)", "Potency": "inconclusive: 44.7 µM [inhibitor, partial curve]"}, {"smiles": "CCc1nn2c(=O)cc(COC(=O)c3ccccc3NC(=O)C3CCCCC3)nc2s1", "activity change, negative = inhibition": "inactive: 2.2% [at 57.1 µM]"}, {"smiles": "COc1cc2c(C#CCCCO)c(-c3ccc(C#N)cc3)oc(=O)c2cc1OC", "Potency": "inconclusive: 14.1 µM [inhibitor, partial curve]"}, {"smiles": "Cc1nn(C(C)C(=O)NCCCN2CCCCCC2)c(=O)c2c1sc1ccccc12", "note": "(centres undefined)", "Potency": "active: 50.1 µM"}, {"smiles": "CCN(CC)S(=O)(=O)c1ccc(NC2c3ccccc3C(=O)N2Cc2ccco2)cc1", "note": "(centres undefined)", "Potency": "inconclusive: 25.1 µM [inhibitor, partial curve]"}, {"smiles": "O=C(NCc1ccccc1)c1ccc(-c2ccccc2C(F)(F)F)o1", "Potency": "inconclusive: 79.4 µM [inhibitor, single point]"}, {"smiles": "CC(=O)Cc1nsc(NC(=O)c2ccc(-c3cccc(Cl)c3)o2)n1", "Potency": "inconclusive: 50.1 µM [inhibitor, partial curve]"}, {"smiles": "CC(C(Sc1ccccc1N)c1ccccc1)[N+](=O)[O-]", "note": "(centres undefined)", "Potency": "active: 6.31 µM"}, {"smiles": "O=C(Nc1ccc(O)cc1)c1cccc(Oc2ccc([N+](=O)[O-])cc2)c1", "Potency": "inconclusive: 89.1 µM [inhibitor, partial curve, poor fit]"}, {"smiles": "CC(C)NC(=S)NC(=O)c1ccc(-c2ccccc2)cc1", "Potency": "inconclusive: 11.2 µM [inhibitor, partial curve]"}, {"smiles": "CCOc1ccc(C(=O)OCC(=O)Nc2cc(S(=O)(=O)N3CCOCC3)ccc2N2CCOCC2)cc1", "Potency": "inconclusive: 4.47 µM [inhibitor, full curve]"}, {"smiles": "COCCN1C(=O)C(=O)/C(=C(/O)c2ccc(OC(C)C)cc2)C1c1cccnc1", "note": "(centres undefined)", "Potency": "inconclusive: 70.8 µM [inhibitor, single point]"}, {"smiles": "COc1cc2c(cc1NC(=O)c1cncc(Br)c1)oc1ccccc12", "Potency": "inconclusive: 31.6 µM [inhibitor, single point]"}, {"smiles": "C#CCOCCOCCOCCNc1nc(N2CCN(C(=O)CCCCCCCCCCNC(=O)[C@H](CCCCN)n3cc(CCO)nn3)CC2)nc(N2CCN(C(=O)CCCCCCCCCCNC(=O)[C@@H]([C@H](C)O)n3cc(C)nn3)CC2)n1", "Potency": "active: 50.1 µM"}, {"smiles": "Cc1ccc(N/N=C/c2ccc(N3CCOCC3)cc2)cc1C", "Potency": "inconclusive: 56.2 µM [inhibitor, partial curve, poor fit]"}, {"smiles": "O=C(Nc1nnc(C2CC2)o1)c1ccc(S(=O)(=O)N2CCc3ccccc3C2)cc1", "activity change, negative = inhibition": "inactive: 37.6%"}, {"smiles": "Cc1cccc2cc(CNCC3CCCO3)c(Cl)nc12", "note": "(centres undefined)", "activity change, negative = inhibition": "inactive: 21.5% [at 57.1 µM]"}, {"smiles": "O=C(COc1ccc(F)cc1Br)NCc1ccccn1", "activity change, negative = inhibition": "inactive: 2.17%"}, {"smiles": "COc1ccc(S(=O)(=O)Nc2ccc3c(c2)CCCN3S(=O)(=O)c2ccc(C)cc2)cc1F", "activity change, negative = inhibition": "inactive: 12.7% [at 57.1 µM]"}, {"smiles": "COc1ccccc1N1CCN(CCCCNS(=O)(=O)c2cccc3c(N(C)C)cccc23)CC1", "Potency": "inconclusive: 26.7 µM [inhibitor, partial curve]"}, {"smiles": "CCOc1ccc(-n2c(-c3ccco3)nc3c(cnn3-c3ccc(C)cc3)c2=O)cc1", "Potency": "inconclusive: 89.1 µM [inhibitor, single point]"}, {"smiles": "COc1cc(CN2CCN(C(=O)c3cccc4ccccc34)CC2)cc(OC)c1O", "Potency": "active: 50.1 µM"}, {"smiles": "CC(=O)NCc1ccc(C(=O)CSc2nnc(-c3ccncc3)n2Cc2ccccc2)o1", "Potency": "active: 15.8 µM"}, {"smiles": "O=C(C1=C(O)C(=O)N(c2nccs2)C1c1ccccc1)c1cc2ccccc2o1", "note": "(centres undefined)", "Potency": "inconclusive: 35.5 µM [inhibitor, partial curve, poor fit]"}, {"smiles": "CC(C)(C)C(=O)NC(=S)NCCc1ccccc1", "Potency": "inconclusive: 15.8 µM [inhibitor, partial curve]"}, {"smiles": "Cc1ccc(C(=O)Nc2ccc(S(=O)(=O)N3CCc4ccccc4C3)cc2)o1", "activity change, negative = inhibition": "inactive: 2.36%"}, {"smiles": "CN(C(=O)COC(=O)c1ccccc1NCCO)C1CCS(=O)(=O)C1", "note": "(centres undefined)", "Potency": "inconclusive: 89.1 µM [inhibitor, single point]"}, {"smiles": "COc1ccc(OC)c(/C=C/c2cc3ccccc3c[n+]2C)c1", "activity change, negative = inhibition": "inactive: -5.26%"}, {"smiles": "COc1cccc(C#Cc2c(C=O)n(C)c3ccccc23)c1", "activity change, negative = inhibition": "inactive: -7.97%"}, {"smiles": "CCOC(=O)C(=NC(C)CC)NNc1ccc(Br)cc1", "note": "(centres undefined)", "activity change, negative = inhibition": "inactive: -11.8%"}, {"smiles": "Cc1cc(C)nc(NN2C(=O)/C(=C/c3ccc(O)cc3)SC2=S)n1", "Potency": "inconclusive: 20 µM [inhibitor, partial curve]"}, {"smiles": "COc1ccc(N2C(=O)CC(Sc3n[nH]c(-c4cccc(C)c4)n3)C2=O)cc1", "note": "(centres undefined)", "Potency": "inconclusive: 3.98 µM [inhibitor, partial curve, poor fit]"}, {"smiles": "CCOCCCn1c(=N)c(C(=O)NCC2CCCO2)cc2c(=O)n3cccc(C)c3nc21", "note": "(centres undefined)", "Potency": "inconclusive: 70.8 µM [inhibitor, single point]"}, {"smiles": "COc1cc(Cl)cc2c1Sc1ccccc1/C2=C/CCN(C)C", "Potency": "inconclusive: 20 µM [inhibitor, single point]"}, {"smiles": "CN(C)S(=O)(=O)c1cccc(NC(=O)C2Cc3ccccc3CN2C(=O)c2ccco2)c1", "note": "(centres undefined)", "Potency": "active: 56.2 µM"}, {"smiles": "COc1ccc2c(c1)NC(c1cccnc1)=NC(c1ccc(F)cc1)=N2", "activity change, negative = inhibition": "inactive: 11.3%"}, {"smiles": "O=C(Nc1nnc(C2CC2)s1)C1Cc2ccccc2CN1C(=O)c1ccco1", "note": "(centres undefined)", "Potency": "inconclusive: 70.8 µM [inhibitor, single point]"}, {"smiles": "O=C(CCCN1C(=O)/C(=C\\c2cccs2)SC1=S)NNC(=O)c1ccncc1", "activity change, negative = inhibition": "inactive: 13.6% [at 11.4 µM]"}, {"smiles": "O=[N+]([O-])c1ccc(O)c(-c2nn[nH]n2)c1", "activity change, negative = inhibition": "inactive: 2.19% [at 57.1 µM]"}, {"smiles": "Cc1ccc(C2C(C#N)=C(N)Oc3n[nH]c(-c4cccs4)c32)s1", "note": "(centres undefined)", "Potency": "inconclusive: 35.5 µM [inhibitor, full curve]"}, {"smiles": "CC1Cc2cc(S(=O)(=O)N(Cc3ccccc3)C(C)C)ccc2N1C(=O)C1CCC1", "note": "(centres undefined)", "activity change, negative = inhibition": "inactive: 6.72%"}, {"smiles": "C=CCSc1nc2sc3c(c2c(=O)n1CC)CCc1ccccc1-3", "Potency": "inconclusive: 1 µM [inhibitor, full curve, poor fit]"}, {"smiles": "Cc1ccc(SC(CC(=O)c2ccc(C)cc2)C(=O)O)cc1", "note": "(centres undefined)", "Potency": "active: 39.8 µM"}, {"smiles": "O=C(/C=C/c1cccs1)NC(=S)Nc1ccc(S(=O)(=O)Nc2ccccc2C(F)(F)F)cc1", "Potency": "inconclusive: 50.1 µM [inhibitor, partial curve, poor fit]"}, {"smiles": "O=C(O)c1ccc(/C=N/Nc2ccc(S(=O)(=O)N3CCCC3)cc2[N+](=O)[O-])cc1", "Potency": "inconclusive: 50.1 µM [inhibitor, partial curve]"}, {"smiles": "COc1ccccc1C1C(C#N)=C(N)N(c2cccnc2)C2=C1C(=O)CC(C)(C)C2", "note": "(centres undefined)", "Potency": "inconclusive: 70.8 µM [inhibitor, partial curve, poor fit]"}, {"smiles": "Cc1cc2cc(C(c3nnnn3C3CCCC3)N(Cc3cccnc3)Cc3ccco3)c(=O)[nH]c2cc1C", "note": "(centres undefined)", "Potency": "inconclusive: 17.8 µM [inhibitor, single point]"}, {"smiles": "Cc1ccc2nc(CCl)[n+]([O-])c(-c3ccccc3)c2c1", "Potency": "inconclusive: 2 µM [inhibitor, full curve]"}, {"smiles": "Cc1sc2ncnc(NCc3ccco3)c2c1C", "Potency": "inconclusive: 79.4 µM [inhibitor, single point]"}, {"smiles": "O=[N+]([O-])/C(C(Cl)=C(Cl)Cl)=C1\\Nc2ccccc2O1", "Potency": "inconclusive: 35.5 µM [inhibitor, single point]"}, {"smiles": "Cc1nnc(SCC(=O)c2ccc(S(=O)(=O)N3CCOCC3)cc2)n1-c1ccccc1", "Potency": "inconclusive: 56.2 µM [inhibitor, partial curve, poor fit]"}, {"smiles": "c1ccc(CN2CCN(CCCNc3ccc4nnc(-c5ccccc5)n4n3)CC2)cc1", "Potency": "inconclusive: 70.8 µM [inhibitor, partial curve]"}, {"smiles": "COc1ccc(/C=C/C(=O)NC(=S)NNC(=O)c2cnccn2)cc1", "Potency": "inconclusive: 31.6 µM [inhibitor, partial curve, poor fit]"}, {"smiles": "Cc1ccccc1CSCC(=O)NCc1ccco1", "Potency": "inconclusive: 50.1 µM [inhibitor, partial curve, poor fit]"}, {"smiles": "N#C/C(=C/c1ccc(N2CCOCC2)o1)c1ccc(Cl)cc1", "Potency": "active: 3.16 µM"}, {"smiles": "Cc1ccc(NC(=O)CSc2nc(-c3ccccc3Cl)nc3cc(=O)[nH]n23)c(C)c1", "activity change, negative = inhibition": "inactive: 24.7% [at 57.1 µM]"}, {"smiles": "O=C1OC(/C(=C\\Nc2ccc(F)cc2F)[N+](=O)[O-])c2ccccc21", "note": "(centres undefined)", "Potency": "inconclusive: 14.1 µM [inhibitor, partial curve]"}, {"smiles": "Clc1cccc(Cl)c1Cn1cnc2c(NCc3ccco3)ncnc21", "activity change, negative = inhibition": "inactive: 25.1%"}]}]}
